A lower IC50 marks a more sensitive line; a limit (>, <) means that the fit lies beyond the doses tested. For AUC the same curve is integrated over the 256-fold range of doses and scaled to a fraction; values near 1 show little effect. For some assays here: Where the top dose is marked as inferred, it is not printed in the source and was worked back from the curve model.

What all share (test): Viability of human cancer cell lines after 72 h of drug (GDSC screen)
Compound in experiment [1]: Cc1cnc(Nc2ccc(OCCN3CCCC3)cc2)nc1Nc1cccc(S(=O)(=O)NC(C)(C)C)c1 [TG101348]
The conditions noted are these: top dose 10.24 µM. As for the experimental part:
(§1)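 Human cancer cell lines in 384-well plates, medium with 10% serum, drug for 72 h over a 256-fold dose range (nine 2-fold or five 4-fold steps up to the top dose). Adherent lines were fixed and stained with the nucleic acid dye Syto60, suspension lines read with resazurin; signal relative to control wells, capped at 0 and 100%. One two-parameter sigmoid per drug and line, fitted in a mixed model over all curves with the slope shared within a line.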

Compound in experiment [2]: CS(=O)(=O)c1ccc(C(=O)Nc2ccc(Cl)c(-c3ccccn3)c2)c(Cl)c1 [Vismodegib]
The settings on record: top dose 10 µM; top dose inferred. On the procedure:
as §1

Compound in experiment [3]: Cc1cnc(Nc2ccc(F)cc2Cl)nc1-c1c[nH]c(C(=O)N[C@H](CO)c2cccc(Cl)c2)c1 [VX-11e]
The settings on record: top dose 5.12 µM; top dose inferred. On the procedure: as §1

Compound in experiment [4]: C=CCNC1=C2C[C@@H](C)C[C@H](OC)[C@H](O)[C@@H](C)/C=C(\C)[C@H](OC(N)=O)[C@@H](OC)/C=C\C=C(/C)C(=O)NC(=CC1=O)C2=O [17-AAG]
The conditions noted are these: top dose 1 µM. On the procedure:
as §1

Compound in experiment [5]: COc1cccc2c1C(=O)c1c(O)c3c(c(O)c1C2=O)C[C@@](O)(C(=O)CO)C[C@@H]3O[C@H]1C[C@H](N)[C@H](O)[C@H](C)O1 [Doxorubicin]
The conditions noted are these: top dose 1.024 µM. On the procedure:
as §1

Compound in experiment [6]: C=CC(=O)Nc1cc(-n2c(=O)ccc3cnc4ccc(-c5ccc(NS(C)(=O)=O)cc5)cc4c32)ccc1C [BMX-IN-1 (QL-XII-61)]
The conditions noted are these: top dose 10 µM; top dose inferred. As for the experimental part: as §1

Compound in experiment [7]: O=C(c1ccc(C(=O)N2CCC(N3CCCC3)CC2)c(Nc2ccccc2)c1)N1CCC(N2CCCC2)CC1 [UNC1215]
The settings on record: top dose 1 µM; top dose inferred. As for the experimental part: as §1

Compound in experiment [8]: COc1cccc2cc(-c3nc([C@H]4CC[C@H](C(=O)O)CC4)n4ncnc(N)c34)[nH]c12 [OSI-027]
The settings on record: top dose 20 µM. On the procedure: as §1

Compound in experiment [9]: CN(C)Cc1cccc(N=C(c2ccccc2)c2c(O)[nH]c3cc(C(=O)N(C)C)ccc23)c1 [BIX02189]
The settings on record: top dose 20 µM; top dose inferred. As for the experimental part: as §1

Compound in experiment [10]: COC(=O)CNC(=O)C(=O)OC [Dimethyloxalylglycine]
The conditions noted are these: top dose 4000 µM; top dose inferred. On the procedure: as §1

Compound in experiment [11]: CCc1cc(-c2n[nH]c(C)c2-c2ccc3c(c2)OCCO3)c(O)cc1O [CCT018159]
The conditions noted are these: top dose 10 µM; top dose inferred. On the procedure:
as §1

As to 8-MG-BA (glioma, adherent), the AUC came out at 0.86 in experiment [1]; 0.954 in experiment [2]; 0.976 in [3]; 0.584 in experiment [4]; 0.36 in experiment [5]; 0.895 in experiment [6]. Further, the AUC in experiment [7] worked out at 0.986; in [8], 0.318; in [9], 0.937; in [10], 0.394; in experiment [11] it was 0.893. For the same cell line, the IC50 (as a rule, the midpoint of a concentration-inhibition curve) in experiment [1] is 7.76 µM; in [2], over 10 µM; in experiment [3], over 5.12 µM; in experiment [4] it was 0.105 µM; in [5] it was 0.0269 µM; in experiment [6] it was over 10 µM. For the same cell line, the half-inhibitory concentration (IC50) was over 1 µM in experiment [7]; 0.402 µM in experiment [8]; over 20 µM in experiment [9]; 130 µM in [10]; over 10 µM in experiment [11].

Consider GB-1 (glioma, adherent), for which the AUC in experiment [1] amounted to 0.909; in experiment [2], 0.961; in experiment [3] it was 0.788; in experiment [4], 0.944; in experiment [5], 0.703; in [6], 0.98. In addition, the AUC in experiment [7] was determined as 0.979; in experiment [8], 0.348; in [9], 0.902; in [10], 0.354; in experiment [11] it was 0.862. In addition, the IC50 was over 10.2 µM in [1]; over 10 µM in [2]; 2.69 µM in experiment [3]; over 1 µM in experiment [4]; 0.267 µM in experiment [5]; over 10 µM in [6]. For the same cell line, the IC50 in experiment [7] is over 1 µM; in experiment [8] it was 0.436 µM; in [9] it was over 20 µM; in experiment [10], 91.4 µM; in [11] it was over 10 µM.

Regarding RXF393 (kidney, adherent), the AUC in [1] was 0.622; in experiment [2], 0.952; in [3], 0.846; in experiment [4], 0.579; in experiment [5], 0.607; in experiment [6], 0.935. Moreover, the AUC was 0.973 in experiment [7]; 0.662 in experiment [8]; 0.833 in experiment [9]; 0.669 in experiment [10]; 0.764 in [11]. Besides, the IC50 is 1.59 µM in experiment [1]; over 10 µM in experiment [2]; over 5.12 µM in experiment [3]; 0.112 µM in experiment [4]; 0.141 µM in experiment [5]; over 10 µM in [6]. Moreover, the 50% inhibitory concentration (IC50) in experiment [7] is over 1 µM; in experiment [8], 4.22 µM; in [9] it was over 20 µM; in experiment [10] it was 895 µM; in experiment [11], 5.07 µM.

For the cell line T84 (large intestine, adherent), the AUC in experiment [1] was 0.928; in [2], 0.989; in experiment [3], 0.846; in experiment [4], 0.967; in experiment [5], 0.483; in experiment [6] it was 0.988. Besides, the AUC in experiment [7] came to 0.988; in experiment [8], 0.795; in experiment [9], 0.963; in [10] it was 0.891; in [11] it was 0.939. In addition, the half-maximal inhibitory concentration (IC50) is over 10.2 µM in experiment [1]; over 10 µM in experiment [2]; 3.84 µM in experiment [3]; over 1 µM in experiment [4]; 0.0575 µM in [5]; over 10 µM in experiment [6]. For the same cell line, the IC50 in [7] is over 1 µM; in experiment [8] it was 9.44 µM; in experiment [9], over 20 µM; in [10], over 4000 µM; in experiment [11], over 10 µM.

With TYK-nu (ovary, adherent), the AUC was found to be 0.943 in [1]; 0.956 in experiment [2]; 0.951 in experiment [3]; 0.473 in experiment [4]; 0.823 in experiment [5]; 0.983 in experiment [6]. Moreover, the AUC in [7] is 0.983; in experiment [8], 0.923; in experiment [9], 0.975; in [10], 0.864; in [11], 0.906. Also, the IC50 in experiment [1] is over 10.2 µM; in experiment [2], over 10 µM; in [3], over 5.12 µM; in experiment [4], 0.0523 µM; in [6] it was over 10 µM; in experiment [7], over 1 µM. The IC50 was over 20 µM in experiment [8], over 20 µM in [9], 3920 µM in experiment [10] and over 10 µM in experiment [11].

On to H2731 (mesothelioma, adherent), for which the AUC in [1] stood at 0.648; in experiment [2], 0.984; in experiment [3], 0.887; in experiment [4] it was 0.765; in [5], 0.911; in experiment [6], 0.945. For the same cell line, the AUC was 0.981 in experiment [7]; 0.703 in experiment [8]; 0.812 in experiment [9]; 0.826 in [10]; 0.927 in [11]. In addition, the 50% inhibitory concentration (IC50) in experiment [1] is 1.75 µM; in [2], over 10 µM; in experiment [3] it was over 5.12 µM; in [4], 0.417 µM; in experiment [5] it was over 1.02 µM; in experiment [6], over 10 µM. For the same cell line, the IC50 in experiment [7] is over 1 µM; in experiment [8], 5.11 µM; in experiment [9], 12.7 µM; in [10], 2900 µM; in experiment [11] it was over 10 µM.

Values taken from the supplement of paper PMC4967469.
